Reference: the supplement of paper PMC3334620
Over roughly 33,000 sequences, “E-score (-0.5 to 0.5)” has its median near -0.012; the highest 2% begin near 0.27. The list shows a part of the results.

Biological target: T1, Vhr1 (UniProt P40522)
T1 sequence: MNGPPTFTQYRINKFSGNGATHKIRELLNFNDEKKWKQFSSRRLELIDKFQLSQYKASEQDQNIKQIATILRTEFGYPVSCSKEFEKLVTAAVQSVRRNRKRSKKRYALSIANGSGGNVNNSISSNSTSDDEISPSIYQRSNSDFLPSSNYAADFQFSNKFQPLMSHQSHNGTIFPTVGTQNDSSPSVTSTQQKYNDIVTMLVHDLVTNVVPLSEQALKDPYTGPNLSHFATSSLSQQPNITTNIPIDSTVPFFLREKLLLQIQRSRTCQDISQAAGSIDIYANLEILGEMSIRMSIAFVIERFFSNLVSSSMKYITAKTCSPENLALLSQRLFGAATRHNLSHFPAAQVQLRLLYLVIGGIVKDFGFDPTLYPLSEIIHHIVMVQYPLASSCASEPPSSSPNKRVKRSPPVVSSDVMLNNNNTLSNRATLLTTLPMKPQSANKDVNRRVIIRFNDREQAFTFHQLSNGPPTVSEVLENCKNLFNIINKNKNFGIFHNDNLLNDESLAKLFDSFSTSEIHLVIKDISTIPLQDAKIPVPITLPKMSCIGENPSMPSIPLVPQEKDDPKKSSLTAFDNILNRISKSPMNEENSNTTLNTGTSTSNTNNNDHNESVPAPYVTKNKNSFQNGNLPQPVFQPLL
Assay: PBM E-score (8-mer binding enrichment) (E-score (-0.5 to 0.5)); higher = stronger / more preferred TF binding; most listed sequences are background and not binding sites
Conditions: protein concentration: 200 nM; construct: GST-full length
Procedure, shortened: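 E-scores (a modified Wilcoxon-Mann-Whitney statistic) were assigned by the Universal PBM Analysis Suite to every ungapped eight-base word pooled with its reverse complement. The input came from universal all-10-mer Agilent arrays made double-stranded by primer extension and probed with GST-tagged yeast transcription factors at about 100-200 nM. Fluorescent anti-GST detected bound protein, and masliner normalised the scans.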

Row | Sequence | PBM E-score
1 | CCTGACCA | 0.0879
2 | CAGACTTA | -0.253
3 | GCGACAAA | -0.0841
4 | ACACTGAA | 0.138
5 | ATCTCAAA | -0.0488
6 | GATATCAA | 0.0828
7 | GAACTGCA | 0.0004
8 | TGTGGCAA | 0.129
9 | GACTCCAA | 0.237
10 | CAAGACTA | -0.0514
11 | CATGGGAG | 0.045
12 | GCGGTAAA | 0.0603
13 | CCCGCCCG | 0.259
14 | ACCTCCCC | 0.0988
15 | ATACCTCC | 0.053
16 | ACGCTCCA | -0.0133
17 | TCTCCGAA | -0.151
18 | AACATACC | 0.11
19 | AGATTGAA | -0.143
20 | TCATACCA | 0.0387
21 | ACAGGATA | -0.0561
22 | AAGGCCGA | -0.115
23 | ACCTACGC | -0.244
24 | AGCTGACC | 0.116
25 | CGCGAACG | 0.0385

Row | Sequence | PBM E-score
26 | GAATAGGC | -0.171
27 | CGGCCTCC | -0.0282
28 | AAACGATC | -0.173
29 | AGGGCACA | 0.0279
30 | GATCCTCA | 0.0533
31 | AGCATGAT | 0.158
32 | GGGATCCC | -0.0726
33 | CAGTCTCA | 0.138
34 | ATGCCAGC | -0.237
35 | AGTAACAT | 0.169
36 | ATGGACGC | 0.0395
37 | AGACGTAG | -0.15
38 | ATAAACCA | -0.0222
39 | ATCGCCTC | 0.108
40 | ACTGCCGG | 0.052
41 | AAAGTATC | -0.0826
42 | GGGATGAA | -0.00977
43 | AAAACTTC | -0.34
44 | AGTGCTTC | -0.125
45 | GAAGGTGA | 0.104
46 | ACTACTGA | 0.191
47 | AGCATTAC | -0.126
48 | GAGGCATA | -0.0229
49 | CATTTCAA | -0.165
50 | GCTGGAAA | -0.141

Row | Sequence | PBM E-score
51 | TGCCTGAA | -0.141
52 | AATCTCCG | -0.0044
53 | AGGAATAG | -0.0681
54 | CTCGGCCC | -0.103
55 | ACTCACAG | 0.325
56 | CTCCGATC | -0.116
57 | CAGATTGA | 0.162
58 | CAATAGTG | 0.0794
59 | GGTGGAGA | -0.0143
60 | CTGGTGAC | 0.162
61 | GGAAAGCA | -0.0895
62 | CGACTTAA | -0.336
63 | CGAACTGC | -0.0468
64 | GGCAATAA | -0.0658
65 | CTCCTGCC | 0.0202
66 | AGAAACTG | -0.169
67 | TGTCGAAA | -0.0195
68 | AGTAAGGG | -0.0311
69 | ATCTAGTG | -0.0252
70 | CATCCGTA | 0.0236
71 | GAGCACCA | -0.00305
72 | CACACGTG | 0.182
73 | CCGCCAAG | -0.0739
74 | CGCCTGGC | 0.111
75 | ACAAGACG | -0.0317

Row | Sequence | PBM E-score
76 | AGGGGTGG | 0.256
77 | GATCAAGC | 0.00723
78 | CAAGACTG | -0.0294
79 | ACAAATCT | -0.0797
80 | ATACCATG | 0.153
81 | AGGAATAA | -0.0851
82 | CCGATTTA | -0.23
83 | ACCTAAGA | -0.114
84 | ATTGGAAG | -0.109
85 | GCACAATA | -0.026
86 | GATGCGAA | -0.063
87 | ATGTATCC | 0.194
88 | ACCCTGCC | -0.0602
89 | GGCTCGCA | 0.163
90 | CCCAGAAA | -0.0201
91 | GGGCAAAC | 0.0298
92 | TAGCCGGA | 0.128
93 | ACGTGTGG | -0.0756
94 | CTCGGCAC | 0.0297
95 | CGTTCTGC | -0.0287
96 | ACCAAGCC | -0.00713
97 | AGTTGTGG | 0.159
98 | AAGGCTAC | -0.186
99 | CCAAGCTA | -0.128
100 | AAATAGAG | -0.141

Row | Sequence | PBM E-score
101 | CGGGAACA | 0.0918
102 | AACGACAG | 0.0106
103 | GACGCCAA | -0.109
104 | GAAGAGTA | -0.059
105 | AAACCGCT | -0.135
106 | ACATGGTC | 0.165
107 | CCTGAGCC | 0.115
108 | AGTTTAAT | -0.108
109 | TCTTGGCA | -0.054
110 | AATCTAAG | -0.257
111 | AAACGAGC | -0.126
112 | ACACGTCT | 0.0135
113 | ATTCACCA | 0.0408
114 | CTTGTACA | -0.273
115 | CTACACCA | -0.0652
116 | CCAACATC | 0.175
117 | AGCATATC | 0.21
118 | GCGTTTGA | -0.199
119 | AATATTGT | 0.0702
120 | AATCTAAC | -0.114
121 | TAACCATA | 0.103
122 | ACTACGTA | 0.161
123 | CCCATCTA | 0.0186
124 | ACACCATA | 0.164
125 | ATGATCCA | 0.13

Row | Sequence | PBM E-score
126 | GTAGATGA | 0.232
127 | TGGATCCA | -0.0454
128 | GGCGAAAC | -0.0234
129 | ATTTGCGC | -0.0712
130 | GATCCCAC | 0.0999
131 | AATCTTAG | -0.116
132 | AGTGTTAT | -0.0408
133 | AAAGAGGG | -0.222
134 | AGCGCTAC | -0.194
135 | CTGCCATA | 0.215
136 | CATTCGTC | 0.122
137 | GGTTGGCA | -0.0149
138 | CTAAGTCA | 0.12
139 | CTACGTGA | -0.18
140 | CCCAACTA | 0.0273
141 | CCCGAGAG | -0.132
142 | AATTCGCC | -0.0371
143 | ATAGCTGC | 0.107
144 | GCGGGCAA | 0.121
145 | CGAAAACC | -0.164
146 | AATATTAT | 0.16
147 | CGTTAACC | -0.0242
148 | GACTGAAA | 0.0643
149 | AGCCATCA | 0.213
150 | GAGAAAGA | -0.167

Row | Sequence | PBM E-score
151 | TCTAGGAA | -0.167
152 | TGACTACA | 0.359
153 | AACCATAC | 0.139
154 | CAACTGCG | 0.00524
155 | CTCCCTCC | -0.068
156 | GAGCAAAA | -0.314
157 | CACTACGC | -0.0987
158 | ATCCAGGA | -0.0709
159 | AGATACTA | 0.0545
160 | AGGCCCTA | -0.311
161 | GAACAGCC | -0.0982
162 | ACATTCGG | 0.137
163 | CACTTGGA | 0.0348
164 | AGAGTCAC | 0.43
165 | ACTAGTAA | 0.0386
166 | CAGGTAGG | -0.122
167 | CAGGCGGC | 0.0327
168 | CATATCGA | 0.292
169 | GGTTGGGA | 0.0699
170 | CTCAACAC | 0.0674
171 | CGGCTTGC | 0.122
172 | AACACAGC | 0.229
173 | ATCTATAC | 0.16
174 | CCACTCCC | 0.0557
175 | ACCGTTGA | -0.0903

Row | Sequence | PBM E-score
176 | CTGACCCC | -0.0745
177 | ACACTTAT | -0.0136
178 | ACCGTACT | 0.244
179 | AATCCTCT | -0.18
180 | CACTTCAG | -0.134
181 | GGAAGGAA | -0.11
182 | AGTCCCTC | -0.096
183 | ACTCCGTC | 0.0781
184 | GCCCGAAC | -0.0883
185 | AGCTAGCC | -0.174
186 | CCTCAACC | -0.133
187 | CTCTCGGC | -0.129
188 | AAGTGGGA | 0.129
189 | GGTAGTAC | 0.128
190 | GACATCAA | -0.00948
191 | CTCCCGCA | 0.0259
192 | ACCCACCC | 0.397
193 | AGAAAGCA | 0.00516
194 | TGAAAACA | -0.0922
195 | AACACAAG | -0.141
196 | ACTTGTGA | 0.0909
197 | AAGGTATG | 0.0908
198 | ATTCGAGA | -0.0158
199 | GCTGACAA | -0.0645
200 | AAAATCCC | -0.106

Row | Sequence | PBM E-score
201 | CTTGCAAC | 0.0737
202 | ATACAGAG | 0.116
203 | GCCGCAAC | -0.0309
204 | AGTACGTG | -0.063
205 | GGTGCCCA | -0.0839
206 | ATCAACGC | -0.103
207 | CGCGGTCA | 0.197
208 | ACTTACAG | -0.0732
209 | GAACCTAC | -0.0923
210 | ACATCGGG | 0.0983
211 | ACTTAGTA | 0.0996
212 | AAGCCTGA | -0.235
213 | GTACTAGA | 0.0963
214 | AATACGAT | 0.0858
215 | CCGATGCA | -0.0663
216 | CCGGATCA | 0.11
217 | GTTGGCGA | -0.103
218 | CAGTCTCG | -0.238
219 | CTCTACTA | 0.0116
